Measured values as given in paper PMC4850295, “Using a Genetically Encoded Sensor to Identify Inhibitors of Toxoplasma gondii Ca^2+ Signaling” (The Journal of Biological Chemistry, 2016).
This is a selection; strong and weak results do not stand in their true shares.

Test system: T1, GCaMP5-expressing T. gondii
T1 construct: whole extracellular parasites expressing GCaMP5 Ca2+ sensor
Design: species or system GCaMP5-expressing Toxoplasma gondii, extracellular; GCaMP5 fluorescence (cytosolic Ca2+) after 100 uM zaprinast in compound-pretreated extracellular parasites, background-subtracted, relative to zaprinast alone
Conditions: 100 uM zaprinast stimulation; 10 min pretreatment; mean of two replicates; 0.23 h
Experimental: GCaMP5-expressing parasites were suspended in Ringer's solution at 4 × 10^7 parasites/ml, and 50 μl of parasites were applied to each well of a 96-well plate (Costar, catalog no. 3631). […] Parasites were then treated with 100 μM zaprinast or 0.1% DMSO as a vehicle control and incubated at 37 °C with 5% CO2 for an additional 4 min before measuring fluorescence with excitation and emission wavelengths of 485 and 525 nm, respectively, on a SpectraMax M3 (Molecular Devices). Basal fluorescence, measured from untreated parasites, was subtracted from all values, and results were expressed as -fold change from parasites treated only with zaprinast. Z′ factors were determined from (i) parasites treated with zaprinast versus untreated parasites and (ii) parasites treated with a final concentration of 1 μM Cpd2 or a vehicle control followed by zaprinast, using the formula, Z′ = 1 − 3(σp + σn)/(|μp − μn|), where σp and σn indicate S.D. values of positive and negative controls, and μp and μn indicate the means of positive and negative controls, respectively. […] We predicted that the zaprinast response measured in GCaMP5-expressing parasites could form the basis for a phenotypic screen. Such a screen would benefit from the known importance of Ca^2+ signaling in parasite biology along with the reported success rate of cell-based phenotypic assays. We designed a screen wherein extracellular GCaMP5-expressing parasites were pretreated with compounds for 10 min before stimulation with zaprinast, and parasite fluorescence was measured 4 min later. We expected that compounds that interfered with the zaprinast response would reduce fluorescence. We calculated a Z′-factor for this screen to determine its dynamic range and suitability to high throughput screening. To do so, we compared zaprinast-treated parasites to untreated parasites or those pretreated with the PKG inhibitor Compound 2 (Cpd2) ([55]). […] We obtained the compound libraries published kinase inhibitor sets PKIS1 ([57]) and PKIS2 (unpublished), from GlaxoSmithKline and applied our phenotypic screen to the 823 ATP mimetics represented in these collections (Fig. 2B and supplemental Table S1). The compounds were screened at a single 10 μM dose with two biological replicates.

Row | SMILES | fold change in fluorescence relative to zaprinast alone
1 | CS(=O)(=O)c1ccc(Oc2nccc(-c3c(-c4ccc(F)cc4)ncn3C3CCNCC3)n2)cc1 [SB-254169] | 1.195
2 | Cc1cc(C)cc(Oc2nccc(-c3c(-c4ccc(F)cc4)ncn3C3CCNCC3)n2)c1 [SB-284851-BT] | 1.079
3 | O=C1NC(=O)C(c2ccccc2Cl)=C1Nc1ccccc1 [SB-376715] | 0.9426
4 | CSc1ccc(NC2=C(c3cccc(Cl)c3)C(=O)NC2=O)cc1 [SB-341528] | 1.248
5 | O=C1NC(=O)C(c2ccccc2Cl)=C1Nc1cc(Cl)c(O)c(Cl)c1 [SB-390523] | 1.133
6 | O=C1NC(=O)C(c2cccc([N+](=O)[O-])c2)=C1Nc1cc(Cl)c(O)c(Cl)c1 [SB-358518] | 1.018
7 | COc1ccccc1Oc1nccc(-c2c(-c3ccc(F)cc3)ncn2C2CCNCC2)n1 [SB-251527] | 1.133
8 | COc1ccc(C2=C(Nc3cccc(Cl)c3)C(=O)NC2=O)cc1 [SB-326892] | 1.023
9 | O=C1NC(=O)C(c2ccccc2)=C1Nc1cc(Cl)c(O)c(Cl)c1 [SB-390530] | 1.139
10 | O=C1NC(=O)C(c2ccccc2)=C1Nc1ccccc1 [SKF-62604] | 1.098
11 | O=C1NC(=O)C(c2ccccc2Cl)=C1Nc1cccc(C(=O)O)c1 [SB-390526] | 1.153
12 | Fc1ccc(-c2ncn(C3CCNCC3)c2-c2ccnc(Oc3cccc(C(F)(F)F)c3)n2)cc1 [SB-253226] | 1.342
13 | CC(C)(C)c1ccc(Oc2nccc(-c3c(-c4ccc(F)cc4)ncn3C3CCNCC3)n2)cc1 [SB-278538] | 0.6481
14 | CS(=O)(=O)c1ccccc1-c1nc(-c2ccc(F)cc2)c(-c2ccncc2)[nH]1 [SB-213663] | 0.2105
15 | Fc1ccc(-c2ncn(C3CCNCC3)c2-c2ccnc(Oc3ccc(Cl)cc3)n2)cc1 [SB-278539] | 1.019
16 | Cc1ccc(C)c(Oc2nccc(-c3c(-c4ccc(F)cc4)ncn3C3CCNCC3)n2)c1 [SB-284852-BT] | 1.077
17 | COc1cccc(C2=C(Nc3ccc(SC)cc3)C(=O)NC2=O)c1 [SB-331032] | 0.837
18 | O=C1NC(=O)C(c2ccc(Cl)cc2)=C1Nc1ccccc1 [SB-317661] | 0.7135
19 | O=C1NC(=O)C(c2ccc(Cl)cc2)=C1Nc1ccc(O)c(Cl)c1 [SB-405367] | 1.015
20 | O=C1NC(=O)C(c2ccccc2)=C1Nc1ccc(Cl)c(C(=O)O)c1 [SB-390532] | 0.8352
21 | O=C1NC(=O)C(c2ccc(Cl)cc2)=C1Nc1cccc(O)c1 [SB-333613] | 0.5564
22 | Fc1ccc(-c2ncn(C3CCNCC3)c2-c2ccnc(Oc3cccc(F)c3)n2)cc1 [SB-251505] | 0.9066
23 | COc1ccccc1C1=C(Nc2ccccc2)C(=O)NC1=O [SB-376719] | 1.162
24 | O=C(O)c1ccc(-c2nc(-c3ccc(F)cc3)c(-c3ccncc3)[nH]2)cc1 [SB-202620] | 0.9742
25 | O=C1NC(=O)C(c2ccc(Cl)cc2)=C1Nc1cccc(C(=O)O)c1 [SB-360737] | 1.092
26 | COc1ccccc1C1=C(Nc2ccc(O)c(Cl)c2)C(=O)NC1=O [SB-381904] | 0.9667
